In article PMC3540817, “Transfer of a Redox-Signal through the Cytosol by Redox-Dependent Microcompartmentation of Glycolytic Enzymes at Mitochondria and Actin Cytoskeleton” (Frontiers in Plant Science, 2012):
Results are given in words; binding and its absence hold for the method and conditions named. For part of these data: In cells and extracts the contact can be indirect. Some results given as binding are weak or reduced against the parent protein; the word gives no strength. For part of these data: Where a sequence is shown, tags or fusion partners need not be part of it. Each block holds one molecule with its values, some of them ahead of it.

Sequences of proteins named here, by UniProt entry; tags and fusion partners are left off. Residues count along the entry.
UniProt Q9FX54: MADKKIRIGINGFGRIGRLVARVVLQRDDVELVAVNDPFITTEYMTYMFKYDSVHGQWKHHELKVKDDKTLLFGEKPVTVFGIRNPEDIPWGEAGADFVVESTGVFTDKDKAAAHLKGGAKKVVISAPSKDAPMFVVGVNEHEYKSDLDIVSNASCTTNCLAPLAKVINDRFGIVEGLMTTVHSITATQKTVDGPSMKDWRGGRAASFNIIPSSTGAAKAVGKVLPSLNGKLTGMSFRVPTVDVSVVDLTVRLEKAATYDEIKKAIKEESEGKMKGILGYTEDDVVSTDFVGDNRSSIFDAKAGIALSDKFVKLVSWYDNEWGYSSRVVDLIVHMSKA
UniProt P25858: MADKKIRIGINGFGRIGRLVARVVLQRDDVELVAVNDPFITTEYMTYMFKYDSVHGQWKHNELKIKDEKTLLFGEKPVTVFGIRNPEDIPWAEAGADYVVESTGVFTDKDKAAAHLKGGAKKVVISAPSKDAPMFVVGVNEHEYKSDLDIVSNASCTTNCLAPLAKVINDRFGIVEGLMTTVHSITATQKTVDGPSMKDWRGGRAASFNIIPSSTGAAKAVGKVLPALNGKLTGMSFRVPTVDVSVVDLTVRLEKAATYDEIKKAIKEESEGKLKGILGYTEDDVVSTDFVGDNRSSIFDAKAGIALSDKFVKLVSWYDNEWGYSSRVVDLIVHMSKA
UniProt P02769, residues 25-607: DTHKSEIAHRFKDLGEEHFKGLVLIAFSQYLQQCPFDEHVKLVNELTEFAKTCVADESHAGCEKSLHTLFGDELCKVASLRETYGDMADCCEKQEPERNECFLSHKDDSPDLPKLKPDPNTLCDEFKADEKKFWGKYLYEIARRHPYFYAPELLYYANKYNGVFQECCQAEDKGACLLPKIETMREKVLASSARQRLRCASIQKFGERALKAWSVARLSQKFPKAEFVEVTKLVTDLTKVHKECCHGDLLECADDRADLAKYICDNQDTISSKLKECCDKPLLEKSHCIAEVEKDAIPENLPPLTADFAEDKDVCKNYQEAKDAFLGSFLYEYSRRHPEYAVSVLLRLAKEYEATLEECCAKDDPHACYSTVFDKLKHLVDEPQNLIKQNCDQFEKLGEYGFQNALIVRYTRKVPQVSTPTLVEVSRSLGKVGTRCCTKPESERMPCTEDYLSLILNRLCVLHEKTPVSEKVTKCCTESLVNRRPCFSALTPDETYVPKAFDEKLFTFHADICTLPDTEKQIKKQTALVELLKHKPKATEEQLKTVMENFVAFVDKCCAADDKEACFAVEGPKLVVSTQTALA

Tests used:
[1] = target: T1, VDAC3 fused to the C-terminal half of YFP (A. thaliana) (UniProt Q9SMX3); experiment: split reporter; split YFP fusions (pUC-SPYNE, pUC-SPYCE) cotransformed in Arabidopsis mesophyll protoplasts; cLSM; mitochondria stained with MitoTracker Orange
T1 sequence: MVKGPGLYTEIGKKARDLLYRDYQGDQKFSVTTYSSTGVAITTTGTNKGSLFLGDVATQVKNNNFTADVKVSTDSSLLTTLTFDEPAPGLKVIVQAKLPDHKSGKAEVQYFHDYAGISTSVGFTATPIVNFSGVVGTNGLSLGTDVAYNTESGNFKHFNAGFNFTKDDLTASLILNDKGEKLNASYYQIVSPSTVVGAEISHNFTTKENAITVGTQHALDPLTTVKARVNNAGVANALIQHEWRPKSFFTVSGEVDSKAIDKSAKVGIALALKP

[2] = target: cytosolic glyceraldehyde-3-phosphate dehydrogenase GapC2 (At1g13440), yeast two-hybrid fusion (A. thaliana) (UniProt Q9FX54); experiment: two-hybrid; screen of a cDNA library from A. thaliana suspension cell culture with GapC1 or GapC2 as bait (Matchmaker kit); selection on SD/QDO/X-α-Gal
[3] = target: T2, recombinant GAPDH GapC1 (At3g04120) (A. thaliana, UniProt P25858 1-338); experiment: far-Western, overlay or dot blot; GapC spotted on nitrocellulose, overlaid with VDAC3 in liposomes, with 10 mM DTT; anti-VDAC1 serum, ECL; both purified
T2 construct: cytosolic NAD-dependent glyceraldehyde-3-phosphate dehydrogenase GapC1, A. thaliana, At3g04120; Redox reagents (diamide + GSH, GSSG, GSNO, H2O2 + GSH, DTT) were added to the mixtures; the redox state is told by the assay; source: recombinant, purified

[4] = target: bovine serum albumin (bovine) (UniProt P02769); experiment: far-Western, overlay or dot blot; GapC and BSA spotted on nitrocellulose, overlaid with VDAC3 in liposomes, without DTT (oxidized GapC); anti-VDAC1 serum, ECL; both purified
[5] = target: cytosolic fructose 1,6-bisphosphate aldolase FBA6 (At2g36460), yeast two-hybrid fusion (A. thaliana) (UniProt Q9SJQ9); experiment: two-hybrid; one-on-one assay: yeast AH109 cotransformed with bait and prey vectors; drop test on SD/TDO and SD/QDO/X-α-Gal
[6] = target: bovine serum albumin (bovine) (UniProt P02769); experiment: far-Western, overlay or dot blot; 2 μg of each protein spotted on nitrocellulose, overlaid with 100 μg/ml aldolase with 0.1 mM GSNO, 5 mM GSSG, 1 mM diamide + 1 mM GSH or 0.5 mM H2O2 + 0.5 mM GSH, 1 h room temperature; glutaraldehyde cross-linking; anti-aldolase antibody; both purified

binding [1]: binds
Molecule: GapC1 fused to a half of YFP (BiFC) (from UniProt P25858 1-338) (enzyme)

binding [2]: binds weakly
Molecule: cytosolic glyceraldehyde-3-phosphate dehydrogenase GapC1 (At3g04120), yeast two-hybrid fusion (from UniProt P25858 1-338) (enzyme)

binding [3]: no binding (condition: with 10 mM DTT) | binding [4]: no binding
B1: VDAC3 (At5g15090) reconstituted into liposomes (natural protein, A. thaliana, UniProt Q9SMX3 1-274, looked up)
chain: MVKGPGLYTEIGKKARDLLYRDYQGDQKFSVTTYSSTGVAITTTGTNKGSLFLGDVATQVKNNNFTADVKVSTDSSLLTTLTFDEPAPGLKVIVQAKLPDHKSGKAEVQYFHDYAGISTSVGFTATPIVNFSGVVGTNGLSLGTDVAYNTESGNFKHFNAGFNFTKDDLTASLILNDKGEKLNASYYQIVSPSTVVGAEISHNFTTKENAITVGTQHALDPLTTVKARVNNAGVANALIQHEWRPKSFFTVSGEVDSKAIDKSAKVGIALALKP
notes: voltage-dependent anion channel VDAC3, A. thaliana, At5g15090; also called VDAC3 in liposomes; porin; source: cell-free system (RTS 100 Wheat Germ CECF), separated from the reaction mix via reconstitution into liposomes

binding [5]: binds weakly
B2: cytosolic fructose 1,6-bisphosphate aldolase FBA6 (At2g36460), yeast two-hybrid fusion (enzyme, UniProt Q9SJQ9 1-358)
chain: MSSFTSKFADELIANAAYIGTPGKGILAADESTGTIGKRLASINVENVESNRRALRELLFTTPGALPCLSGVILFEETLYQKSSDGTPFVDMLKSAGVLPGIKVDKGTVELAGTNGETTTQGLDGLGDRCKKYYEAGARFAKWRAVLKIGVNEPSQLAIHENAYGLARYAVICQENGLVPIVEPEILVDGSHDIQKCAAVTERVLAACYKALSDHHVLLEGTLLKPNMVTPGSESAKVAPEVIAEHTVRALQRTVPAAVPAIVFLSGGQSEEEATRNLNAMNQLKTKKPWSLSFSFGRALQQSTLKTWGGKEENVKKAQEAFLVRCKANSEATLGAYKGDAKLGEGAAESLHVKDYKY

binding [6]: no binding (tested: 100 μg/ml)
B3: recombinant cytosolic fructose 1,6-bisphosphate aldolase (FBA6, At2g36460) (enzyme, A. thaliana, UniProt Q9SJQ9 1-358, looked up)
chain: MSSFTSKFADELIANAAYIGTPGKGILAADESTGTIGKRLASINVENVESNRRALRELLFTTPGALPCLSGVILFEETLYQKSSDGTPFVDMLKSAGVLPGIKVDKGTVELAGTNGETTTQGLDGLGDRCKKYYEAGARFAKWRAVLKIGVNEPSQLAIHENAYGLARYAVICQENGLVPIVEPEILVDGSHDIQKCAAVTERVLAACYKALSDHHVLLEGTLLKPNMVTPGSESAKVAPEVIAEHTVRALQRTVPAAVPAIVFLSGGQSEEEATRNLNAMNQLKTKKPWSLSFSFGRALQQSTLKTWGGKEENVKKAQEAFLVRCKANSEATLGAYKGDAKLGEGAAESLHVKDYKY
notes: cytosolic fructose 1,6-bisphosphate aldolase FBA6, A. thaliana, At2g36460; Redox reagents were added to the mixtures; no modified residues are named; the redox state is told by the assay; source: recombinant, purified
